# Results published in the supplement of paper PMC8728848.
# The other results are listed elsewhere or left out.
# What was measured:
# Experiment in all cases: glycan array binding signal (z-score within array); higher = stronger binding
# Details in all cases: glycan notation: IUPAC condensed, linker removed
# [1] = molecular target: Fuc(a1-3)[Gal(b1-4)]GlcNAc
# How it was run: (§1)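 Arrays were curated from the Consortium for Functional Glycomics database, 3228 in total, and kept only where the protein sequence was available. Binding is expressed as a within-array Z-score. This score was averaged across arrays of the same protein sequence at different concentrations or buffers and across linkers, and negative values can be read as non-binding.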
# [2] = molecular target: Fuc(a1-3)[Gal(b1-4)]GlcNAc(b1-2)Man(a1-3)[Fuc(a1-3)[Gal(b1-4)]GlcNAc(b1-2)Man(a1-6)]Man(b1-4)GlcNAc(b1-4)GlcNAc
# How it was run: as §1
# [3] = molecular target: Fuc(a1-3)[Gal(b1-4)]GlcNAc(b1-2)Man(a1-3)[Fuc(a1-3)[Gal(b1-4)]GlcNAc(b1-2)Man(a1-6)]Man(b1-4)GlcNAc(b1-4)[Fuc(a1-6)]GlcNAc
# How it was run: as §1
# [4] = molecular target: Fuc(a1-3)[Gal(b1-4)]GlcNAc(b1-2)Man(a1-6)[Gal(b1-4)GlcNAc(b1-2)Man(a1-3)]Man(b1-4)GlcNAc(b1-4)GlcNAc
# How it was run: as §1
# [5] = molecular target: Fuc(a1-3)[Gal(b1-4)]GlcNAc(b1-3)Gal(b1-3)[Fuc(a1-4)]GlcNAc
# How it was run: as §1
# [6] = molecular target: Fuc(a1-3)[Gal(b1-4)]GlcNAc(b1-3)GalNAc
# How it was run: as §1
# [7] = molecular target: Fuc(a1-3)[Gal(b1-4)]GlcNAc(b1-4)Gal(b1-4)[Fuc(a1-3)]GlcNAc
# How it was run: as §1
# [8] = molecular target: Fuc(a1-3)[Gal(b1-4)]GlcNAc(b1-4)Gal(b1-4)[Fuc(a1-3)]GlcNAc(b1-4)Gal(b1-4)[Fuc(a1-3)]GlcNAc
# How it was run: as §1
# [9] = molecular target: Fuc(a1-3)[Gal(b1-4)]GlcNAc(b1-6)[Gal(b1-3)GlcNAc(b1-3)]Gal(b1-4)Glc
# How it was run: as §1
# [10] = molecular target: Fuc(a1-3)[Gal(b1-4)]GlcNAc6S
# How it was run: as §1
# [11] = molecular target: Fuc(a1-3)[Gal3S(b1-4)]Glc6S
# How it was run: as §1
# [12] = molecular target: Fuc(a1-3)[Gal3S(b1-4)]GlcNAc
# How it was run: as §1
# [13] = molecular target: Fuc(a1-3)[Gal3S(b1-4)]GlcNAc6S
# How it was run: as §1
# [14] = molecular target: Fuc(a1-3)[GalNAc(b1-4)]GlcNAc
# How it was run: as §1
# [15] = molecular target: Fuc(a1-4)GlcNAc
# How it was run: as §1
# [16] = molecular target: Fuc(b1-3)GlcNAc
# How it was run: as §1
# [17] = molecular target: Gal(a1-2)Gal
# How it was run: as §1
# [18] = molecular target: Gal(a1-3)Gal
# How it was run: as §1
# [19] = molecular target: Gal(a1-3)Gal(b1-3)GlcNAc
# How it was run: as §1
# [20] = molecular target: Gal(a1-3)Gal(b1-3)GlcNAc(b1-2)Man(a1-3)[Gal(a1-3)Gal(b1-3)GlcNAc(b1-2)Man(a1-6)]Man(b1-4)GlcNAc(b1-4)GlcNAc
# How it was run: as §1
# [21] = molecular target: Gal(a1-3)Gal(b1-3)GlcNAc(b1-3)GalNAc
# How it was run: as §1
# [22] = molecular target: Gal(a1-3)Gal(b1-3)[Fuc(a1-4)]GlcNAc(b1-2)Man(a1-3)[Gal(a1-3)Gal(b1-3)[Fuc(a1-4)]GlcNAc(b1-2)Man(a1-6)]Man(b1-4)GlcNAc(b1-4)GlcNAc
# How it was run: as §1
# [23] = molecular target: Gal(a1-3)Gal(b1-4)Glc
# How it was run: as §1
# [24] = molecular target: Gal(a1-3)Gal(b1-4)GlcNAc
# How it was run: as §1
# [25] = molecular target: Gal(a1-3)Gal(b1-4)GlcNAc(b1-3)GalNAc
# How it was run: as §1
# [26] = molecular target: Gal(a1-3)Gal(b1-4)[Fuc(a1-3)]GlcNAc
# How it was run: as §1
# [27] = molecular target: Gal(a1-3)Gal(b1-4)[Fuc(a1-3)]GlcNAc(b1-2)Man(a1-3)[Gal(a1-3)Gal(b1-4)[Fuc(a1-3)]GlcNAc(b1-2)Man(a1-6)]Man(b1-4)GlcNAc(b1-4)GlcNAc
# How it was run: as §1
# [28] = molecular target: Gal(a1-3)GalNAc
# How it was run: as §1
# [29] = molecular target: Gal(a1-3)[Gal(a1-4)]Gal(b1-4)GlcNAc
# How it was run: as §1
# [30] = molecular target: Gal(a1-4)Gal(b1-3)GlcNAc(b1-2)Man(a1-3)[Gal(a1-4)Gal(b1-3)GlcNAc(b1-2)Man(a1-6)]Man(b1-4)GlcNAc(b1-4)GlcNAc
# How it was run: as §1
# [31] = molecular target: Gal(a1-4)Gal(b1-4)Glc
# How it was run: as §1
# [32] = molecular target: Gal(a1-4)Gal(b1-4)GlcNAc
# How it was run: as §1
# [33] = molecular target: Gal(a1-4)Gal(b1-4)GlcNAc(b1-2)Man(a1-3)[Gal(a1-4)Gal(b1-4)GlcNAc(b1-2)Man(a1-6)]Man(b1-4)GlcNAc(b1-4)GlcNAc
# How it was run: as §1
# [34] = molecular target: Gal(a1-4)Gal(b1-4)GlcNAc(b1-3)Gal(b1-4)Glc
# How it was run: as §1
# [35] = molecular target: Gal(a1-4)GlcNAc
# How it was run: as §1
# [36] = molecular target: Gal(a1-6)Glc
# How it was run: as §1
# [37] = molecular target: Gal(b1-2)Gal
# How it was run: as §1
# [38] = molecular target: Gal(b1-3)Gal
# How it was run: as §1
binder,measurement,setting,value
"LSectin (Mus musculus), Q8BNX1 (protein) MNTGEYNKLGSAIEEVSRGQLGRWECYKQRLFFLVLALLVATVLWALILSTLLSSASSKLRVLLSHQDLLRTNASEQKMTLSSLKDDIGACRNCCSVTKAQLQTTLAEFKDIQAKLMEQESILKELQERVTQDLAKASRDRENIRSELFQALEAVKRQNSSCEQCPPSWLPFQGSCYYFSETQATWDTAQSYCGGQGAHLVIVRGLNEQGFLSQHTRGRGYWLGLRAVRHLNKIQGYRWVDGASLNFSHWNSGEPNDSRGHEDCIMMLHSGLWNDAPCTNERDGWICEKRSSCY",glycan array binding signal (z-score),[1],-0.101
same,glycan array binding signal (z-score),[2],-0.158
same,glycan array binding signal (z-score),[3],-0.116
same,glycan array binding signal (z-score),[4],-0.152
same,glycan array binding signal (z-score),[5],-0.144
same,glycan array binding signal (z-score),[6],-0.184
same,glycan array binding signal (z-score),[7],-0.155
same,glycan array binding signal (z-score),[8],-0.176
same,glycan array binding signal (z-score),[9],-0.184
same,glycan array binding signal (z-score),[10],-0.145
same,glycan array binding signal (z-score),[11],-0.015
same,glycan array binding signal (z-score),[12],-0.103
same,glycan array binding signal (z-score),[13],-0.143
same,glycan array binding signal (z-score),[14],-0.159
same,glycan array binding signal (z-score),[15],-0.185
same,glycan array binding signal (z-score),[16],-0.166
same,glycan array binding signal (z-score),[17],-0.145
same,glycan array binding signal (z-score),[18],-0.162
same,glycan array binding signal (z-score),[19],-0.189
same,glycan array binding signal (z-score),[20],-0.178
same,glycan array binding signal (z-score),[21],-0.184
same,glycan array binding signal (z-score),[22],-0.18
same,glycan array binding signal (z-score),[23],-0.156
same,glycan array binding signal (z-score),[24],-0.186
same,glycan array binding signal (z-score),[25],-0.19
same,glycan array binding signal (z-score),[26],-0.171
same,glycan array binding signal (z-score),[27],-0.185
same,glycan array binding signal (z-score),[28],-0.147
same,glycan array binding signal (z-score),[29],-0.143
same,glycan array binding signal (z-score),[30],-0.154
same,glycan array binding signal (z-score),[31],-0.176
same,glycan array binding signal (z-score),[32],-0.176
same,glycan array binding signal (z-score),[33],-0.18
same,glycan array binding signal (z-score),[34],-0.183
same,glycan array binding signal (z-score),[35],-0.149
same,glycan array binding signal (z-score),[36],-0.184
same,glycan array binding signal (z-score),[37],-0.156
same,glycan array binding signal (z-score),[38],-0.161
